Measurements as given in article PMC7819943, “Rice protein-binding microarrays: a tool to detect cis-acting elements near promoter regions in rice”.
Some of the results follow.

molecular target: T1, OsWOX13 (Oryza sativa, UniProt Q5QMM3 1-267); assay: protein-binding microarray (RPBM); PBS, 2% BSA, 51.3 ng/ul salmon testes DNA, 50 uM zinc acetate, 200 nM TF, 25 C, 1 h; high values mean tight binding; details: protein: recombinant; tags: N-terminal polyhistidine and DsRed monomer fusion (pET32a); label: CyDye5-dUTP incorporated in the synthesized complementary strand; 3' TTTTT single-stranded linker to array surface; dsDNA, one strand shown
T1 sequence: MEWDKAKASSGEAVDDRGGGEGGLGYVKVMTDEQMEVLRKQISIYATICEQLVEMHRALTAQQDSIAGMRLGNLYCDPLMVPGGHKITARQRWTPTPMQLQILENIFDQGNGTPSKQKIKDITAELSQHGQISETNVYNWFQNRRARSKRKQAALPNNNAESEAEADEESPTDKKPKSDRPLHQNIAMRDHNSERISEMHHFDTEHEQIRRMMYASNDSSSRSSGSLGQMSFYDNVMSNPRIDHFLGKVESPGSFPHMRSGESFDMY
Outline: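 Ni–NTA purification followed expression in E. coli BL21-CodonPlus of transcription factors fused N-terminally to a polyhistidine tag and DsRed. At 200 nM in PBS with 2% BSA, salmon testes DNA and 50 µM zinc acetate, the protein was incubated for 1 h at 25 °C with a custom Agilent array that had been primer-extended with Cy5-dUTP and blocked with 2% BSA. After washing, the array was read on an Axon 4000B scanner. The binding signal is per-feature fluorescence intensity in arbitrary units.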

Sequence	binding signal
TCATTTCATAATTAATTTCCACCATACAGCCTGGAGGTTACGGAGTCACCTAGTGCAG	13900 fluorescence intensity (a.u.)
TTGAAATTGAAGATGATGTGACTGAAAAGTTGCGTGTGTACGGAGTCACCTAGTGCAG	31900 fluorescence intensity (a.u.)
GTCAACCAATGATTGCTACTTCCCTATGCACGTATTGTATCGGAGTCACCTAGTGCAG	25200 fluorescence intensity (a.u.)
AGTTCTCTGATTTTGGATGGGGATTTGCTTGATGGATCCGCGGAGTCACCTAGTGCAG	7130 ± 903 fluorescence intensity (a.u.)
GCAAATATAAGATTGCTTCAAGATTTGTGCTCTGACCCACCGGAGTCACCTAGTGCAG	3240 fluorescence intensity (a.u.)
ATTAATAAATTAGAATTATATTCTTATGGTTTATATGGACCGGAGTCACCTAGTGCAG	29800 fluorescence intensity (a.u.)
TTTGATTTGATTTGATTTGATTGAATTAATTTGAGTCCGACGGAGTCACCTAGTGCAG	65400 fluorescence intensity (a.u.)
CACCATCAATTCCATATAAACTGGACTAGAGCTATTACCTCGGAGTCACCTAGTGCAG	5700 fluorescence intensity (a.u.)
TTCGGATTGATTGTTGAGACAAATCTCGTAGAACACGGAACGGAGTCACCTAGTGCAG	62900 fluorescence intensity (a.u.)
ATGTCTATCAACCCTTTATTTATGTTATTGTTCATGTTTGCGGAGTCACCTAGTGCAG	4160 fluorescence intensity (a.u.)
GTAACGGGATGATTGAAGCTACAACGAGAATGGCAACGTCCGGAGTCACCTAGTGCAG	22200 fluorescence intensity (a.u.)
CTCCTTAATCACAATTTAACAAACTCGAGGGGCTAAAACGCGGAGTCACCTAGTGCAG	18200 fluorescence intensity (a.u.)
CATAATTAACATACTCCTCCATCCCACAATATAAGGGATTCGGAGTCACCTAGTGCAG	23900 fluorescence intensity (a.u.)
TTGATTAAAATCTAATATCAACATTTGCTCCAAATGTTCACGGAGTCACCTAGTGCAG	13800 fluorescence intensity (a.u.)
GATTTACATTGATTATGATGTTGGGATGTTTCATATTCAACGGAGTCACCTAGTGCAG	8900 fluorescence intensity (a.u.)
ATCTAATTTTGCTTATAGCTGCTGCTGATGCTTCATATTTCGGAGTCACCTAGTGCAG	3800 fluorescence intensity (a.u.)
ATTAATTATGTCATAAACTGTTGTTGATTTGTGCCAGTTTCGGAGTCACCTAGTGCAG	39500 fluorescence intensity (a.u.)
AGAATCAGGGACTTAATTTGCAATTAGTAATTTAAAACAGCGGAGTCACCTAGTGCAG	14800 fluorescence intensity (a.u.)
TTCAAATTGTGATCAGCTTCCAAGTTCCAACCCATCCCCTCGGAGTCACCTAGTGCAG	6680 fluorescence intensity (a.u.)
GATGATTGACTTATTATGCTATAATAATATGCTGAATGAACGGAGTCACCTAGTGCAG	40600 fluorescence intensity (a.u.)
ACTGATAATCTATTTGTTAGTAAAAGATTTTGACGTACTACGGAGTCACCTAGTGCAG	7590 fluorescence intensity (a.u.)
ATTTCTCATCAAATTGGTTCTTATTGATCAAACTATAGTTCGGAGTCACCTAGTGCAG	4740 fluorescence intensity (a.u.)
TTAATAAATCTAGACTAATTTATTAATATCAATATAAATGCGGAGTCACCTAGTGCAG	16000 fluorescence intensity (a.u.)
CATTAATTGTGATACAGTACGTATAACTTTGTCAAAGCTACGGAGTCACCTAGTGCAG	46400 fluorescence intensity (a.u.)
ACCAATTAACTGCCATTACTAAGGAACTACTCTCTCTATTCGGAGTCACCTAGTGCAG	21100 fluorescence intensity (a.u.)
TATAAATAATAAATCATCAATATGAATATAACCAATGCTACGGAGTCACCTAGTGCAG	5400 fluorescence intensity (a.u.)
TATTTAATTAGGTTAATGACCTTGGACTCCCATTGAGTATCGGAGTCACCTAGTGCAG	32600 fluorescence intensity (a.u.)

Sequence	binding signal
ATTTGCACAATCATGTGATGATTTGCAAATTTGCATACCGCGGAGTCACCTAGTGCAG	32400 fluorescence intensity (a.u.)
ATGAACGGTTAATTTGAATGAAATTCATTTCGGATTGCAGCGGAGTCACCTAGTGCAG	11100 fluorescence intensity (a.u.)
GGCAAATTGTCAAGGTTAACCGTAAATCTACAGTGCCAATCGGAGTCACCTAGTGCAG	15500 fluorescence intensity (a.u.)
ATTTAAATCTTTATAACAAATTATAAGTGATATGAAGATACGGAGTCACCTAGTGCAG	4340 fluorescence intensity (a.u.)
TCTGATTTTGAGAGGCTGTCAGAAATGCTCTTACAAGTTACGGAGTCACCTAGTGCAG	6820 fluorescence intensity (a.u.)
CGAGCTTTAATCAATTAATCTGGAGTTTAGTGAATATATTCGGAGTCACCTAGTGCAG	9200 fluorescence intensity (a.u.)
TTCTAATTAAATAATTATTATTTATCTTGTGTATATATATCGGAGTCACCTAGTGCAG	46500 fluorescence intensity (a.u.)
TGGCTAATTTTGAAGATGTAGATCACTCATGCGGCGGCACCGGAGTCACCTAGTGCAG	10000 fluorescence intensity (a.u.)
AACTGAGAGTATCTGATTGAAAATCTATACTGTTTGGGGACGGAGTCACCTAGTGCAG	21000 fluorescence intensity (a.u.)
GATAATTTTATAGTAAGATAGGATTAGTGCGATGAATATTCGGAGTCACCTAGTGCAG	6510 fluorescence intensity (a.u.)
AGTATGTATTAACGCATGATTAATTAAGTATTAGCTAATTCGGAGTCACCTAGTGCAG	8430 fluorescence intensity (a.u.)
AATCAATCAATATGCTACTCAAGATCTGGATCTTGTCTAGCGGAGTCACCTAGTGCAG	33000 fluorescence intensity (a.u.)
ATTCAATTTGTGTTAAATGATGATCAATATGAAACGGATGCGGAGTCACCTAGTGCAG	39000 fluorescence intensity (a.u.)
TATTATGATTTGATTTATCATCAAATGTTCTTTAAGCATGCGGAGTCACCTAGTGCAG	39100 fluorescence intensity (a.u.)
CGTACTGTACTGATTAATCTCGCTCGTTCGCTCCAGCATACGGAGTCACCTAGTGCAG	4300 fluorescence intensity (a.u.)
TATTGTGTATGATTGATTGTCATTCTTTCTTTGACTACATCGGAGTCACCTAGTGCAG	38900 fluorescence intensity (a.u.)
CTGTACTGATTGTTCACGGGTCGTTTCCGCACTATGGAACCGGAGTCACCTAGTGCAG	27900 fluorescence intensity (a.u.)
ACGACAGATTGACAGAATATACTACTCCATAACTTTTGAACGGAGTCACCTAGTGCAG	23100 fluorescence intensity (a.u.)
TAAGTCTATCTAATCATCAAACCGTTTTGCCATCAATTTGCGGAGTCACCTAGTGCAG	3740 fluorescence intensity (a.u.)
GGCAACGAGATGATTGATAGCCATGAGAACTGGCAATTTTCGGAGTCACCTAGTGCAG	25800 fluorescence intensity (a.u.)
AATAGATAGATAGATATCTTCGAAACTCCCGCCCGCCACCCGGAGTCACCTAGTGCAG	30600 fluorescence intensity (a.u.)
GTCCACATCCAATCACCTTCAAAATCCATCAGATTATCTGCGGAGTCACCTAGTGCAG	10300 fluorescence intensity (a.u.)
ATTTGTCTCTCTATCTTTAATTTATGATATATCCCCATATCGGAGTCACCTAGTGCAG	3480 fluorescence intensity (a.u.)
TATGCACAAATTATAATCATGTACAGTTACCCTCTGTTGCCGGAGTCACCTAGTGCAG	12300 fluorescence intensity (a.u.)
TATAGCTAATTGATGGGCACAATGCGAGTCGCATTTGCATCGGAGTCACCTAGTGCAG	38200 fluorescence intensity (a.u.)
GTTATGTTGATTGTGCCGCCCAAATATAGACTTGAACTCACGGAGTCACCTAGTGCAG	7520 fluorescence intensity (a.u.)
TAAACATAGATTACTAACAAAACTTATTCCATAACCCCTACGGAGTCACCTAGTGCAG	3400 fluorescence intensity (a.u.)
